{"source": "the supplement of paper PMC3334620", "note": "In all, about 33,000 sequences were measured (“E-score (-0.5 to 0.5)”: median about -0.017, highest 2% from about 0.3 on). This is one part of the list."}
{"target": "T1, Sut1 (UniProt P53032)", "T1 sequence": "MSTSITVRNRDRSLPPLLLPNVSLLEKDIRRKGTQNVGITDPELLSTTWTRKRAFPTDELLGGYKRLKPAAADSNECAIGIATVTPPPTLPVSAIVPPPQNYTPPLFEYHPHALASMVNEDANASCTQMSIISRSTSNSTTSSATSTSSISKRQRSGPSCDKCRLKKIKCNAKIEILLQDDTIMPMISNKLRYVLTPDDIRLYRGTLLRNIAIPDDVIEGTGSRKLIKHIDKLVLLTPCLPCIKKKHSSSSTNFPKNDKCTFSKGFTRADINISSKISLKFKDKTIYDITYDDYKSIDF", "assay": "PBM E-score (8-mer binding enrichment) (E-score (-0.5 to 0.5)); higher = stronger / more preferred TF binding; most listed sequences are background and not binding sites", "details": "protein concentration: 200 nM; construct: GST-full length", "method_in_brief": "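The E-score, a modified Wilcoxon-Mann-Whitney statistic, was computed by the Universal PBM Analysis Suite for every ungapped eight-base word pooled with its reverse complement. Scans behind it were normalised with masliner after bound GST-tagged yeast transcription factors were detected with fluorescent anti-GST. The proteins, at about 100-200 nM, had been applied to universal all-10-mer Agilent arrays made double-stranded by primer extension.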"}
{"sequence": "AGGTCACT", "PBM E-score": -0.208}
{"sequence": "AGCGAACC", "PBM E-score": 0.0689}
{"sequence": "CTGGGTAC", "PBM E-score": -0.2}
{"sequence": "AGTGGAAC", "PBM E-score": -0.107}
{"sequence": "CCCAGCGG", "PBM E-score": -0.215}
{"sequence": "ATTGGGCC", "PBM E-score": -0.00173}
{"sequence": "CGGCATTA", "PBM E-score": 0.0544}
{"sequence": "GCCTTCCC", "PBM E-score": -0.0894}
{"sequence": "TCGTACGA", "PBM E-score": -0.0725}
{"sequence": "GCATGGCC", "PBM E-score": -0.178}
{"sequence": "AACCACGG", "PBM E-score": 0.0519}
{"sequence": "ATATAATC", "PBM E-score": 0.156}
{"sequence": "CTGGGGGA", "PBM E-score": -0.273}
{"sequence": "CAATGGGG", "PBM E-score": -0.163}
{"sequence": "CGAACACC", "PBM E-score": -0.214}
{"sequence": "CATAGTTC", "PBM E-score": 0.0676}
{"sequence": "AGGAGGAC", "PBM E-score": -0.242}
{"sequence": "CCGCTCTA", "PBM E-score": 0.026}
{"sequence": "AACAAAAT", "PBM E-score": 0.211}
{"sequence": "CAGGCTCC", "PBM E-score": 0.119}
{"sequence": "AATGAACG", "PBM E-score": 0.0695}
{"sequence": "AATACGAG", "PBM E-score": -0.0322}
{"sequence": "AACCATCC", "PBM E-score": 0.0583}
{"sequence": "AACCTACC", "PBM E-score": -0.0315}
{"sequence": "ACTATCGC", "PBM E-score": -0.0369}
{"sequence": "CCCGGCCC", "PBM E-score": -0.188}
{"sequence": "TATAAAGA", "PBM E-score": 0.224}
{"sequence": "ACTAAGTC", "PBM E-score": 0.0911}
{"sequence": "GCCAATAA", "PBM E-score": 0.095}
{"sequence": "AAAGCTGT", "PBM E-score": 0.0813}
{"sequence": "CTTCTTAC", "PBM E-score": -0.035}
{"sequence": "AGCTAGGG", "PBM E-score": -0.201}
{"sequence": "ACTCTCGA", "PBM E-score": -0.0375}
{"sequence": "CAGCCCAC", "PBM E-score": -0.186}
{"sequence": "GCGGGGCC", "PBM E-score": -0.19}
{"sequence": "CGTATTAA", "PBM E-score": 0.0987}
{"sequence": "ACCCTATG", "PBM E-score": -0.159}
{"sequence": "ACAGTCCG", "PBM E-score": 0.312}
{"sequence": "GCGGCGCC", "PBM E-score": 0.00918}
{"sequence": "GCTCGAAA", "PBM E-score": 0.0433}
{"sequence": "ATTGTTCG", "PBM E-score": 0.271}
{"sequence": "GCACGCCA", "PBM E-score": -0.271}
{"sequence": "CAACCGAG", "PBM E-score": 0.0199}
{"sequence": "TCTCTAAA", "PBM E-score": 0.107}
{"sequence": "CCCACCGC", "PBM E-score": -0.147}
{"sequence": "CAGCGAAG", "PBM E-score": -0.111}
{"sequence": "GACCTCAA", "PBM E-score": -0.062}
{"sequence": "ATCTCCTG", "PBM E-score": 0.016}
{"sequence": "GTATCGAA", "PBM E-score": 0.113}
{"sequence": "CTTTTCGA", "PBM E-score": 0.0839}
{"sequence": "CGAACAAA", "PBM E-score": 0.234}
{"sequence": "TATTCGCA", "PBM E-score": 0.0506}
{"sequence": "ATTCAGGA", "PBM E-score": 0.0993}
{"sequence": "ATAGAGGC", "PBM E-score": -0.288}
{"sequence": "CCATATGA", "PBM E-score": -0.13}
{"sequence": "GCATGGTA", "PBM E-score": -0.106}
{"sequence": "AAAGAACT", "PBM E-score": 0.119}
{"sequence": "AGTATCGC", "PBM E-score": -0.145}
{"sequence": "CTTCACGA", "PBM E-score": -0.167}
{"sequence": "CCCTCACA", "PBM E-score": -0.337}
{"sequence": "ACCATCTC", "PBM E-score": -0.0647}
{"sequence": "GGTTCAGA", "PBM E-score": -0.0644}
{"sequence": "GGTTTTGA", "PBM E-score": 0.215}
{"sequence": "TCTGCCCA", "PBM E-score": -0.056}
{"sequence": "AGTGCGAT", "PBM E-score": 0.0266}
{"sequence": "TCAATAAA", "PBM E-score": 0.106}
{"sequence": "CCGATACC", "PBM E-score": -0.172}
{"sequence": "TCCAGAGA", "PBM E-score": -0.187}
{"sequence": "CTTTTGGA", "PBM E-score": 0.0684}
{"sequence": "AGAGGACC", "PBM E-score": -0.296}
{"sequence": "CAACCCAG", "PBM E-score": -0.24}
{"sequence": "CTGGACAA", "PBM E-score": -0.205}
{"sequence": "CGACAAAA", "PBM E-score": 0.274}
{"sequence": "ACCACCGA", "PBM E-score": -0.0384}
{"sequence": "CGCATTAA", "PBM E-score": 0.0301}
{"sequence": "AACCTTGG", "PBM E-score": 0.00151}
{"sequence": "CCTCCTGC", "PBM E-score": -0.209}
{"sequence": "TTGAGCAA", "PBM E-score": -0.0501}
{"sequence": "GAGTACGC", "PBM E-score": -0.0779}
{"sequence": "GCAGAGAC", "PBM E-score": -0.276}
{"sequence": "GACTCAGA", "PBM E-score": -0.126}
{"sequence": "AATTTGAC", "PBM E-score": 0.181}
{"sequence": "AAGCCCCG", "PBM E-score": 0.0824}
{"sequence": "TACCGAGA", "PBM E-score": 0.0757}
{"sequence": "CAGACCAC", "PBM E-score": -0.169}
{"sequence": "CCTAGCGA", "PBM E-score": -0.262}
{"sequence": "ATTATAAA", "PBM E-score": 0.275}
{"sequence": "ACTGCATC", "PBM E-score": -0.121}
{"sequence": "CGGTTAAA", "PBM E-score": 0.171}
{"sequence": "GAGGTTGA", "PBM E-score": -0.00781}
{"sequence": "GACGGTGC", "PBM E-score": -0.234}
{"sequence": "AGCGTTGA", "PBM E-score": -0.00854}
{"sequence": "GTGGCCAC", "PBM E-score": -0.147}
{"sequence": "AAGACGAG", "PBM E-score": -0.0762}
{"sequence": "ACTCGCGG", "PBM E-score": 0.075}
{"sequence": "AGGGAGGC", "PBM E-score": -0.221}
{"sequence": "ATGTCACG", "PBM E-score": -0.226}
{"sequence": "CGATGATC", "PBM E-score": 0.0382}
{"sequence": "GAGGCAAA", "PBM E-score": -0.0375}
{"sequence": "ATCGCTCG", "PBM E-score": -0.0657}
{"sequence": "ACTACACT", "PBM E-score": -0.0118}
{"sequence": "ACGATAAC", "PBM E-score": 0.0725}
{"sequence": "TTTATAAA", "PBM E-score": 0.182}
{"sequence": "ACTGGAAC", "PBM E-score": -0.0112}
{"sequence": "AAGCCAGT", "PBM E-score": -0.176}
{"sequence": "AGTCGATG", "PBM E-score": 0.0604}
{"sequence": "TGGACACA", "PBM E-score": -0.00117}
{"sequence": "GCAGGGTA", "PBM E-score": -0.112}
{"sequence": "ATGAGGTG", "PBM E-score": -0.145}
{"sequence": "AATCCCTG", "PBM E-score": -0.146}
{"sequence": "CCCGTCCC", "PBM E-score": -0.247}
{"sequence": "CAAGGCTC", "PBM E-score": -0.328}
{"sequence": "GTAACTGA", "PBM E-score": -0.138}
{"sequence": "CGAGCATA", "PBM E-score": -0.0666}
{"sequence": "AAGTGCCA", "PBM E-score": -0.0565}
{"sequence": "GGATGCAA", "PBM E-score": 0.0448}
{"sequence": "CGAAAAAC", "PBM E-score": 0.151}
{"sequence": "GTTGTGGA", "PBM E-score": -0.0256}
{"sequence": "CAGTATGG", "PBM E-score": -0.0986}
{"sequence": "TCAACCGA", "PBM E-score": 0.114}
{"sequence": "CATTACAA", "PBM E-score": 0.212}
{"sequence": "AAACTGGA", "PBM E-score": 0.102}
{"sequence": "AAACATAT", "PBM E-score": 0.267}
{"sequence": "CCACAGTC", "PBM E-score": -0.308}
{"sequence": "CAGCGTAA", "PBM E-score": 0.024}
{"sequence": "CGATCGTC", "PBM E-score": -0.0685}
{"sequence": "ATAGGGGC", "PBM E-score": -0.263}
{"sequence": "AGAGACGA", "PBM E-score": 0.014}
{"sequence": "CCGTGAGC", "PBM E-score": -0.0664}
{"sequence": "ACCGTTCC", "PBM E-score": 0.0208}
{"sequence": "CACCAGTA", "PBM E-score": -0.059}
{"sequence": "GCAGTGGC", "PBM E-score": -0.0364}
{"sequence": "AAACGTCG", "PBM E-score": -0.0497}
{"sequence": "AATTATGT", "PBM E-score": 0.147}
{"sequence": "GAACTGGC", "PBM E-score": -0.117}
{"sequence": "ACTACGCG", "PBM E-score": -0.068}
{"sequence": "AGAAGAGC", "PBM E-score": -0.0588}
{"sequence": "CCGAATCG", "PBM E-score": 0.153}
{"sequence": "AGACCACA", "PBM E-score": -0.25}
{"sequence": "GAGAGCTC", "PBM E-score": -0.119}
{"sequence": "CTCCACTA", "PBM E-score": -0.137}
{"sequence": "AATCGCGT", "PBM E-score": 0.0398}
{"sequence": "AGATCCAG", "PBM E-score": -0.03}
{"sequence": "ATCAGTTC", "PBM E-score": -0.0531}
{"sequence": "AATCGGTA", "PBM E-score": 0.0655}
{"sequence": "AGTTGGAA", "PBM E-score": 0.0348}
{"sequence": "GAATGTGA", "PBM E-score": 0.082}
{"sequence": "CATTCGCA", "PBM E-score": -0.0433}
{"sequence": "TCACCTAA", "PBM E-score": 0.0844}
{"sequence": "AAGGCCCT", "PBM E-score": -0.226}
{"sequence": "CCCACCAA", "PBM E-score": 0.0281}
{"sequence": "CTCAAAGC", "PBM E-score": 0.105}
{"sequence": "AGTCGCAA", "PBM E-score": -0.0255}
{"sequence": "ATTAATAG", "PBM E-score": 0.117}
{"sequence": "AGGGTCAT", "PBM E-score": -0.201}
{"sequence": "AGCGTACG", "PBM E-score": -0.206}
{"sequence": "GTGTAGTA", "PBM E-score": -0.0262}
{"sequence": "CTGGCTGA", "PBM E-score": 0.0245}
{"sequence": "AACGTCGT", "PBM E-score": -0.129}
{"sequence": "CTAGAACA", "PBM E-score": 0.14}
{"sequence": "CCGTAAGA", "PBM E-score": 0.0164}
{"sequence": "ACCTTAGC", "PBM E-score": -0.0352}
{"sequence": "GGGCCCCC", "PBM E-score": -0.309}
{"sequence": "AACCCCGA", "PBM E-score": 0.447}
{"sequence": "TGAGCGAA", "PBM E-score": 0.0958}
{"sequence": "TGGTCCAA", "PBM E-score": -0.193}
{"sequence": "CTAGGGAG", "PBM E-score": -0.142}
{"sequence": "AGGTAGGA", "PBM E-score": 0.0679}
{"sequence": "GACCTAAA", "PBM E-score": 0.0696}
{"sequence": "ACACGATA", "PBM E-score": 0.143}
{"sequence": "GAAAGCAA", "PBM E-score": 0.251}
{"sequence": "AACCAACC", "PBM E-score": -0.178}
